Results: PubChem BioAssay AID493208 (National Center for Advancing Translational Sciences (NCATS), 2011)
The campaign covered roughly 44,000 compounds. About 340 (0.77%) were called active. Not shown: some 5% with an inconclusive outcome. The call rests on the fitted dose curve; in most records, active means well fitted inhibition curve with a large enough effect; inconclusive means small, poorly fitted or top-dose-only effect; inactive means flat fitted curve, though single readings scatter. This is one part of the list.

assay: Acumen qHTS Assay for Inhibitors of the mTORC1 Signaling Pathway in MEF (Tsc2-/-, p53-/-) Cells: Sytravon; conditions: phospho-rpS6 immunofluorescence/PI, 24 h; series mostly up to 38.3 µM; activity change, negative = inhibition: at the top concentration;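 further: plate controls were DMSO for no effect and rapamycin for full effect; nearly all actives have a fitted effect of over 50% in size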
Outline: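 Plate MEFs (Tsc2-/-, p53-/-, empty vector) in DMEM/10% FBS; after 24 h add compound, incubate 24 h at 37 degree Celsius; fix in PFA/TX-100, block, stain phospho-rpS6 and 10 uM PI; scan at 488 nm; report % positive cells.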

SMILES	activity change, negative = inhibition
CC1CCN(S(=O)(=O)c2ccc3c(c2)N(CC(=O)NCCCN2CCCC(C)C2)C(=O)CS3)CC1 (stereo unspecified)	inactive: 6.18%
Cc1cccc(CNC(=O)c2ccc(NC(=O)N3CCSc4ncccc43)cc2)c1	inactive: 0.978%
CCOc1ccc(NC(=O)C(C)Sc2nc3ncccc3o2)cc1 (stereo unspecified)	inactive: -2.91%
CC(=O)c1ccc(N2CCN(c3ncnc4c3cnn4C)CC2)cc1	inactive: 1.78%
Cc1ccc2c(c1)-c1ncc(C(=O)c3cc(Br)ccc3O)cc1CO2	inactive: -7.15%
COc1ccc(-n2nc(C(=O)Nc3cccc(C)n3)c3c4ccccc4n(C)c3c2=O)cc1	inactive: -0.641%
Cc1cc(C)cc(NC(=O)Cn2c(=O)n(Cc3ccc4c(c3)OCO4)c(=O)c3oc4ccccc4c32)c1	inactive: -0.781%
Cc1cccc(CNC(=O)Cn2ccc3cc(S(=O)(=O)N4CCC(C)CC4)ccc32)c1	inactive: -9.39%
COc1ccccc1-c1cc(C(F)(F)F)nc(S(=O)(=O)CCCC(=O)Nc2ccc(F)cc2F)n1	inactive: -15.6%
O=C(Cn1c(=O)n(Cc2nc(-c3ccccc3)no2)c(=O)c2cc3c(cc21)OCO3)Nc1cccc(C(F)(F)F)c1	inactive: 0.419%
CCOC(=O)c1c(C)[nH]c(C)c1S(=O)(=O)N(C)CC(=O)Nc1cccc(C(F)(F)F)c1	inactive: 1.62%
CCOC(=O)C1CCN(C(=O)Cn2ncc3c([nH]c4ccccc43)c2=O)CC1	inactive: 2.43%
Cc1cccc(C(=O)Nc2nc(-c3nnn(-c4cc(C)ccc4C)c3C)ns2)c1	inactive: -0.0384%
COc1ccc(NC(=O)Cn2c(=O)n(Cc3ccco3)c(=O)c3sc4ccccc4c32)cc1OC	inactive: 6.28%
CCOc1cc(C#N)c(NC(=O)c2ccc(OC)c(S(=O)(=O)N3CCCCC3)c2)cc1OCC	inactive: 1%
CC(=O)c1ccc(NC(=O)c2cnc(N3CCCC3)nc2C)cc1	inactive: 0%
O=C(Cn1c(=O)n(Cc2ccco2)c(=O)c2ccccc21)Nc1cccc(F)c1	inactive: -1.9%
Cc1ccc(-n2c(-c3ccc(Br)cc3)nc3c(cnn3-c3ccccc3)c2=O)cc1	inactive: 2.73%
CCc1ccccc1NC(=O)Cn1c(=O)n(-c2ccccc2)c(=O)c2oc3ccccc3c21	inactive: -9.15%
COc1ccccc1N1CCN(S(=O)(=O)c2ccc(-c3coc(C)n3)cc2)CC1	inactive: -7.89%
Cc1c2cnn(-c3ccccc3)c(=O)c2c(C)n1CC(=O)Nc1ccccc1Br	inactive: -4.06%

SMILES	activity change, negative = inhibition
Cc1ccc(N2CCN(C(=O)c3cn(C)c4ccc(S(=O)(=O)N5CCC(C)CC5)cc4c3=O)CC2C)cc1 (stereo unspecified)	inactive: -2.41%
O=C(C1CCCCC1)N(Cc1cccnc1)c1nc2ccc(Cl)cc2s1	inactive: 0.107%
O=C(Nc1nnc(S(=O)(=O)N2CCCc3ccccc32)s1)c1ccc(Cl)cc1	inactive: 5.01%
CCN(C(=O)CSc1nc(-c2ccc(C(C)C)cc2)no1)c1ccccc1	inactive: -19.5%
COc1ccc2c(c1)CC(C(=O)Nc1ccc(Br)c(C)c1)CO2 (stereo unspecified)	inactive: -2.25%
Cc1ccccc1-c1nc(CS(=O)(=O)CC(=O)NCCCN2CCN(C)CC2)c(C)o1	inactive: 0.705%
COc1ccc(C(=O)NCC(=O)OCc2cc(=O)n3nc(C4CCCCC4)sc3n2)cc1	inactive: -0.972%
COc1ccc(NC(=O)CSc2nncn3c2cc2occc23)c(OC)c1	inactive: -15.6%
COc1ccc(-n2nnc(-c3nc(-c4ccc5c(c4)OCO5)no3)c2C)cc1Cl	inactive: 0%
CCOC(=O)c1ccc(NC(=O)CCc2c(C)nc3cc(-c4ccc(OC)cc4OC)nn3c2C)cc1	inactive: -1.29%
CC(C)Oc1ccc(C(=O)N2CCC(c3nc4ccccc4s3)CC2)cc1	inactive: -18.5%
COc1cc(C(=O)Nc2ccc(-c3nc4cc(C)c(C)cc4o3)cc2)cc(OC)c1OC	inactive: 8.61%
Cc1ccc(SCCNC(=O)CN(c2cccc(C)c2C)S(C)(=O)=O)cc1	inactive: -14.7%
CCOC(=O)c1c(C)oc2nc(C)nc(NCCc3ccc(OCC)cc3)c12	inactive: 5.72%
CC1=C(C(=O)NCc2cccc(Cl)c2)C2(CCCCCC2)OC1=O	inactive: -3.77%
CC(=O)Nc1ccc(S(=O)(=O)N2CCC(n3c(C)nc4cccnc43)CC2)cc1	inactive: 0%
CCC(C)NC(=O)Cn1c(=O)n(-c2cc(OC)cc(OC)c2)c(=O)c2ccccc21 (stereo unspecified)	inactive: -8.64%
CCOc1ccc(CN(CCc2ccc3c(c2)OCO3)Cc2cc(OC)cc(OC)c2)cc1	inactive: -14.6%
Cc1ccc2c(CNCCc3ccco3)c(C(=O)O)n(Cc3ccc(F)cc3)c2c1	inactive: -12%
COc1ccc(NC(=O)CCCc2nnc3n(C(C)C)c(=O)c4sccc4n23)cc1Cl	inactive: 1.35%
CCOc1ccc(NC(=O)Cn2cc(C(=O)C3CC3)c3ccccc32)cc1	inactive: -0.789%

SMILES	activity change, negative = inhibition
COc1ccc(C(=O)Nc2ccc(-c3nc4cc(C)ccc4o3)c(O)c2)cc1	inactive: -4.01%
O=C(CSc1nccn1Cc1ccco1)Nc1ccc(OC(F)(F)F)cc1	inactive: -2.55%
Cc1cc(=O)[nH]c2nnc(SCc3cccc(C(F)(F)F)c3)n12	inactive: 0.0896%
Cc1nc(N2CCOCC2)c2c(C(=O)N3CCN(c4cccc(C(F)(F)F)c4)CC3)c(C)oc2n1	inactive: 6.76%
COc1ccc(NC(=O)C(Cc2ccccc2)NS(=O)(=O)c2ccc3c(c2)oc(=O)n3C)c(OC)c1 (stereo unspecified)	inactive: 1.17%
CC(C)c1ccc(NC(=O)Cn2nnc(C(=O)NCCc3ccccc3)c2N)cc1	inactive: 2.15%
COc1cc(Cl)c(NC(=O)CN2C(=O)c3cccnc3Sc3ccccc32)c(OC)c1	inactive: 5.2%
Cc1nn(-c2ccccc2)c(-n2cccc2)c1C(=O)NCCCN1CCN(c2ccccc2F)CC1	inactive: -2.03%
Cc1ccc(OCC(=O)OCc2cc(=O)n3ccsc3n2)cc1C	inactive: 4.72%
Cc1nc2ccc(S(=O)(=O)NCC(=O)NCc3ccc(Cl)cc3)cc2s1	inactive: -1.13%
COc1ccccc1N1CCN(c2ncc3c(n2)CCN(Cc2ccccc2C)C3)CC1	inactive: 10.2%
COc1ccc(OC(=O)c2cc(-c3ccc4c(c3)OCCO4)on2)cc1	inactive: -9.51%
CCOc1ccc(NC(=O)Cn2c(=O)nc(-c3ccccc3)c3ccccc32)cc1	inactive: 4.37%
Cc1ccc(C)c(NC(=O)CSc2cn(CC(=O)N3CCCCC3)c3ccccc23)c1	inactive: -6.85%
Brc1ccc(-c2cn3cc(Cc4ccccc4)sc3n2)cc1	inactive: 10.2%
CC1CCN(S(=O)(=O)c2ccc3[nH]ccc3c2)CC1	inactive: -8.96%
CCOC(=O)c1ccc(NC(=O)c2noc3c2CCCC3)cc1	inactive: -15.2%
Cn1cc(CCCC(=O)NCc2ccc(F)cc2)c2ccccc21	inactive: 6.89%
O=C1NC(NS(=O)(=O)c2ccccc2)(C(F)(F)F)C(=O)N1CCc1ccccc1 (stereo unspecified)	inactive: -7.69%
